# Reference: PubChem BioAssay AID588855 (National Center for Advancing Translational Sciences (NCATS), 2011)
# Hit rate of the full screen: of about 410,000 compounds, about 5,000 (1.2%) were called active. The inconclusive results got no clear call from the source; some entries with a clear call stand among them for comparison. Calls come from the whole dose curve; as a rule, active = well fitted inhibition curve with a large enough effect; inconclusive = small, poorly fitted or top-dose-only effect; inactive = no such curve, though single readings can be large or run the other way. Where the call is inconclusive, the potency comes from a doubtful curve fit.
# Experiment: qHTS for Inhibitors of TGF-b; note: nearly all actives have a fitted effect of over 65% in size
# Settings: HepG2 CAGA-GFP TGF-b/SMAD3 reporter, GFP fluorescence, 18 h, TGF-beta stimulated, 500 pg/mL final; series mostly up to 46.1 µM
# Method in brief: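 HEPG2 CAGA-GFP reporter cells (1000/well, DMEM with 1% FBS) received compounds, then recombinant TGF-beta at 500 pg/mL final for 18 hours at 37 degrees C. Per-cell GFP summed per well was normalised to unstimulated and stimulated DMSO controls before curve fitting.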
# Potency is the fitted concentration of half-maximal effect; tags give direction and shape of the fitted curve.
row,SMILES,Potency
1,CCN(CC)CCn1nc2c3c(cccc3c1=O)-c1ccccc1-2,"inconclusive: 35.5 µM [inhibitor, single point]"
2,COc1ccc(CNCCC(c2ccc(OC)cc2)c2ccccc2OC)cc1 (stereo not drawn),"inconclusive: 22.4 µM [inhibitor, single point]"
3,COc1ccc(N(CC(=O)NCc2ccccc2OC)S(=O)(=O)c2ccc(C)cc2)cc1Cl,"inconclusive: 6.31 µM [inhibitor, single point]"
4,Cc1ccc(-c2nc(-c3cccnc3)sc2CC(=O)Nc2ccc(C)c(Cl)c2)cc1,"inconclusive: 17.8 µM [inhibitor, single point]"
5,COc1ccc(-c2onc(C)c2C)cc1S(=O)(=O)NCc1ccc(Br)cc1,inactive
6,Cc1ccc(-c2[nH]ncc2C(=O)c2ccc(Br)cc2)c(O)c1,"inconclusive: 20 µM [inhibitor, single point]"
7,Cc1ccc(C)c(N2CCN(C(=O)CCS(=O)(=O)c3ccc4c(c3)CC(=O)N4C)CC2)c1,"inconclusive: 22.4 µM [inhibitor, single point]"
8,COc1ccc(NC(=O)c2cc(C3CC3)nc3c2cnn3C(C)C)cc1OC,inactive
9,CCCCn1c(-c2cccc(Br)c2)nc2cc3[nH]c(=O)c(C(C)C)nc3cc21,"inconclusive: 35.5 µM [inhibitor, single point]"
10,COc1ccc(CCNC(=O)CSc2nc(=O)n3cc(C)ccc3n2)cc1OC,"inconclusive: 0.112 µM [inhibitor, full curve, poor fit]"
11,CCN(Cc1ccc(OC)c(F)c1)C(=O)CCl,inactive
12,COc1cc(/C=C(/C#N)c2ccc(C)cc2)ccc1Oc1ccc([N+](=O)[O-])cn1,"inconclusive: 14.1 µM [inhibitor, single point]"
13,COc1ccc(CNC(=O)COC(=O)c2ccc(OCc3c(C)noc3C)cc2)cc1OC,"inconclusive: 5.62 µM [inhibitor, full curve, poor fit]"
14,CCOc1cccc(CNc2ccc(O)cc2)c1OCc1ccccc1Cl,active: 12.6 µM
15,O=C(O)C1CCCC1,inactive
16,CCCc1nc2ccccc2c(=O)n1/N=C/c1c(C)[nH]n(-c2ccc(C)cc2)c1=O,"inconclusive: 22.4 µM [inhibitor, partial curve, poor fit]"
17,Cc1cc(C)cc(NC(=O)CN(C)S(=O)(=O)c2ccc3[nH]c4c(c3c2)CCCC4)c1,"inconclusive: 35.5 µM [inhibitor, single point]"
18,O=C(CNC(=O)c1ccc(Br)o1)Nc1cccc(-c2cnc3ccccc3n2)c1,"inconclusive: 0.199 µM [inhibitor, full curve, poor fit]"
